# Assay results published in PubChem BioAssay AID1346428 (National Center for Advancing Translational Sciences (NCATS), 2018).
# Where “and” joins values, the source holds several entries; their conditions need not be identical. Identical values can stand only once. Among all 48,000 compounds or so, about 1,200 (2.5%) were called active. Not shown: some 2% with an inconclusive outcome.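 Rule for the calls: active = activation of at least 60% and not above a set upper limit (about 1 call in 100 departs from these limits); inconclusive = activation of 40% to 60%, or above that upper limit; inactive = activation under 40%.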 The list shows a part of the results.
# Target: Probable G-protein coupled receptor 32 (Homo sapiens) (UniProt O75388)
# Sequence of UniProt O75388 (O75388 whole entry, looked up): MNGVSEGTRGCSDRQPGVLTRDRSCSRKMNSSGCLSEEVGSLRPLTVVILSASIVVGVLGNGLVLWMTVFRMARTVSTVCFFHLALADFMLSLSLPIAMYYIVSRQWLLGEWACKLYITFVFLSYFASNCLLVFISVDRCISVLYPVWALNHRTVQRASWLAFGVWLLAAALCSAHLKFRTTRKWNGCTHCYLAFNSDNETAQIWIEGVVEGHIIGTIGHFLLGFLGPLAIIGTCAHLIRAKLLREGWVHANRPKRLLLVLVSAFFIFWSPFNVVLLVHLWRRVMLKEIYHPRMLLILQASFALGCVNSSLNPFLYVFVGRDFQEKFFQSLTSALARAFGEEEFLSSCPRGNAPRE
# Test: qHTS for Agonists of Human Resolvin D1 Receptor DRV1; note: 0% is about no effect
# Settings: CHO-K1 GPR32 beta-arrestin PathHunter luminescence, 90 min; at 76.9 µM; stronger effect = higher value; zero percent set by DMSO-only wells
# Summary of the method: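 CHO-K1 cells stably expressing ProLink-tagged GPR32 and Enzyme Activator-tagged beta-arrestin were seeded at 2,500 cells/well overnight, exposed to compounds for 90 min at 37 °C, then read by beta-Gal complementation chemiluminescence after 1 h detection reagent.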
row,Compound,activation
1,O=C(CSc1nnc(-c2ccccc2)c(-c2ccccc2)n1)NC1CCCC1,inactive: -11.2%
2,CCOc1ccc(OCC)c(NS(=O)(=O)c2c(C(=O)N3CCCCCC3)c(C)n(C)c2C)c1,inactive: -18.7%
3,COc1ccc(C2c3c(oc4ccc(C)cc4c3=O)C(=O)N2CCCN2CCOCC2)cc1OC (stereo unspecified),inactive: -12.2%
4,CCOC(=O)C1CCCN(S(=O)(=O)c2cc3c4c(c2)CC(=O)N4CCC3)C1 (stereo unspecified),inactive: -33.2%
5,CCc1ccc(NC(=O)Cn2c(=O)n(CCCCC(=O)NCCc3ccccc3)c(=O)c3ccccc32)cc1,inactive: -1.87%
6,COc1ccc(C)cc1NC(=O)C1COc2ccccc2C1 (stereo unspecified),inactive: -15.1%
7,Fc1ccc(-n2cc(-c3ccccc3)c3c(NCCc4ccccc4)ncnc32)cc1,inactive: -44.6%
8,COc1ccc(NC(=O)C2=CC(c3ccc4c(c3)OCO4)=NS(=O)(=O)N2C)cc1,inactive: -27.2%
9,CCC(C)(C)NC(=O)C1CCN(S(=O)(=O)c2c(C)noc2/C=C/c2ccc(C)cc2)CC1,inactive: -2.97%
10,COc1cccc(CNC(=O)c2oc3c(c2C)-c2nn(Cc4cccc(Cl)c4)cc2CC3)c1,inactive: 3.06%
11,COc1ccc(-c2noc(CC(=O)Nc3ccc(Br)cc3C)n2)cc1,inactive: -5.31%
12,CCOC(=O)c1c(NC(=O)COc2c(C)cc(Cl)cc2Cl)sc2c1CCCC2,inactive: -10.4%
13,COc1ccc(S(=O)(=O)NCC(c2ccc(N(C)C)cc2)N2CCCC2)cc1 (stereo unspecified),inactive: -13.1%
14,CCCCCCOC(=O)NC(=N)c1ccc(NCc2nc3cc(C(=O)N(CCC(=O)OCC)c4ccccn4)ccc3n2C)cc1,inactive: -19.5%
15,Cc1ccc(S(=O)(=O)c2nc(-c3cccc(Cl)c3)oc2NCc2ccccc2)cc1,inactive: -0.112%
16,Cc1cc(C)c(NC(=O)Cn2c(=O)n(Cc3ccc(C(=O)NCc4ccco4)cc3)c(=O)c3sccc32)c(C)c1,inactive: -12.6%
17,Cc1ccn2cc(-c3ccc(C)c(NS(=O)(=O)c4ccc(Cl)cc4)c3)nc2c1,inactive: 0.181%
18,Cc1nnc(N2CCCC(C(=O)NCCc3ccccc3)C2)c2nn(-c3ccccc3)c(C)c12 (stereo unspecified),inactive: -21.4%
19,CCOC(=O)Cn1c(=O)oc2cc(S(=O)(=O)N3CCN(c4cc(C)ccc4C)CC3)ccc21,inactive: -14.3%
20,COC(=O)c1cc2oc3ccccc3c2n1CC(=O)Nc1ccc(C)cc1C,inactive: 3.43%
21,COCCCNC(=O)c1ccc2nc(CCc3ccccc3)oc2c1,inactive: -17.9%

row,Compound,activation
1,CCOC(=O)c1c(NC(=O)c2ccc(C)c(C)c2)sc2c1CCCCC2,inactive: -21.6%
2,Cn1cnc(S(=O)(=O)N2CCCC(C(=O)Nc3ccc(OC(F)(F)F)cc3)C2)c1 (stereo unspecified),inactive: -5.27%
3,CCc1ccc(C(=O)NC2=NC(c3ccccc3F)CC(=O)N2)cc1 (stereo unspecified),inactive: -7.1%
4,CCC(=O)N1CCc2cc(S(=O)(=O)NC(C(=O)Nc3cc(OC)cc(OC)c3)C(C)C)ccc21 (stereo unspecified),inactive: -0.839%
5,CN[C@@H]1[C@H](O)[C@H](NC)[C@H]2O[C@@]3(O)C(=O)C[C@@H](C)O[C@H]3O[C@@H]2[C@H]1O,inactive: -28.9%
6,CCCN1CCN(CCCNC(=O)c2c(C)nn(-c3ccc(F)cc3)c2-n2cccc2)CC1,inactive: 2.6%
7,CCOc1ccc(CNC(=O)Cn2c(=O)c3cccn3c3ccccc32)cc1,inactive: -7.7%
8,Cc1c(Cl)ccc2sc(N3CCN(C(=O)CS(=O)(=O)c4ccccc4)CC3)nc12,inactive: 47.2%
9,CCOc1ccc(OCC)c(NS(=O)(=O)c2ccc3c(c2)CCN3C(=O)C2CCC2)c1,inactive: -12.2%
10,O=C(Cc1c(C(=O)O)[nH]c2ccccc12)Nc1cccc(C(F)(F)F)c1,inactive: 44%
11,Cc1ccc(OCC(=O)Nc2ccc(-c3nc4ccccc4o3)cc2)c(C)c1,inactive: -4.36%
12,O=C(Nc1ccccc1Br)N1CCC(CN2CCCC2)CC1,inactive: -5.74%
13,COc1ccc(CN2CCCN(CC(=O)Nc3ccc4c(c3)OCCO4)S2(=O)=O)cc1,inactive: -3.9%
14,COc1ccccc1CNC(=O)CCCn1c(=O)c2ccccc2n(Cc2ccc(C)cc2)c1=O,inactive: 3.09%
15,CN1CCN(C2Cc3ccccc3Sc3ccc(Cl)cc32)CC1 (stereo unspecified),inactive: 25.8% and inactive: -31.2%
16,Cc1ccc(C(=O)N2CCC(C(N)=O)CC2)cc1NC(=O)c1nsc2ccccc12,inactive: -5.15%
17,COc1ccc(C2CC(=O)N(CC(=O)Nc3cccc(C)c3C)c3ccccc3S2)cc1OC (stereo unspecified),inactive: -20.2%
18,CCC(=O)Nc1ccc(O)cc1,inactive: -6.67%
19,CCOC(=O)C1CCN(C(=O)c2nn(-c3ccc(OC)cc3)c(=O)c3c2c2ccccc2n3C)CC1,inactive: 4.98%
20,Cc1ccc(Sc2ccc(N3CCCC(C(=O)Nc4ccc(F)cc4F)C3)nn2)cc1 (stereo unspecified),inactive: 35.5%
21,COc1ccc(N(CC(=O)NCCc2ccc(Cl)cc2)S(=O)(=O)c2c(C)nn(C)c2C)cc1,inactive: -1.19%

row,Compound,activation
1,CC1CCN(S(=O)(=O)c2cc(C(=O)N3CCN(c4ccccc4F)CC3)n(C)c2)CC1,inactive: 28.7%
2,Cc1ccc(CSc2nc3cccnc3n2Cc2ccc(C(=O)NCCc3cccs3)cc2)cc1,inactive: -18.1%
3,Cc1nn(C)c2c1c(C(F)(F)F)cc(=O)n2CC(=O)N1CCC(C)CC1,inactive: 14.4%
4,Cc1ccc(-c2noc(-c3nnn(CC(=O)Nc4cc(Cl)ccc4C)c3N)n2)cc1,inactive: -22.6%
5,CCC1CN(C(=O)C2CCN(S(=O)(=O)c3c(C)noc3/C=C/c3ccccc3F)CC2)c2cc(C)ccc2O1 (stereo unspecified),inactive: -14.5%
6,COc1ccc(NC(=O)c2oc3ccccc3c2NC(=O)Cc2cccs2)c(OC)c1,inactive: -5.38%
7,COc1ccc(CNC(=O)C(C)n2c(=O)cc(C)c3c(C)nn(-c4ccccc4)c32)cc1 (stereo unspecified),inactive: -19.7%
8,CCCCn1c(SCC(=O)NCc2ccc(C)cc2)nc2c(sc3ccccc32)c1=O,inactive: -12.1%
9,COCCN1CCN(Cc2ccc(C(=O)NC(C)C)cc2)C(=O)C1=O,inactive: -12.4%
10,CCN1CCN(c2cc(C)c3cc(NC(=O)c4ccc(OC)c(OC)c4)ccc3n2)CC1,inactive: 5.98%
11,CCc1cccc(NC(=O)C2CCN(S(=O)(=O)c3cccc(-c4noc(C)n4)c3)CC2)c1,inactive: -0.0237%
12,NS(=O)(=O)c1cc2c(cc1Cl)NC(C(Cl)Cl)NS2(=O)=O (stereo unspecified),inactive: 4.1%
13,Cc1nc2c(c(C)nn2-c2ccccc2)c(C)c1CCC(=O)NCc1ccccc1,inactive: -0.383%
14,COc1ccc(C2c3cccn3CCN2S(=O)(=O)c2ccc([N+](=O)[O-])cc2)cc1 (stereo unspecified),inactive: -15.9%
15,CC(=O)c1cccc(NC(=O)c2nc(-c3ccccc3)n(-c3ccccc3C)n2)c1,inactive: -10.5%
16,COc1ccc(C)cc1Nc1nc(N)c2cc(OC)c(OC)cc2n1,inactive: 13.2%
17,CCN1CCN(Cc2c(O)ccc3cc(-c4ccc(OC)cc4)c(=O)oc23)CC1,inactive: 0.636%
18,Cc1ccc(/C=C/c2onc(C)c2S(=O)(=O)N2CCC(C(=O)N(CCC(C)C)Cc3ccco3)CC2)cc1,inactive: -12.8%
19,COc1ccc(N2CCN(CCCNC(=O)c3ccc4nc(N5CCCCC5)sc4c3)CC2)cc1,inactive: 2.24%
20,COc1ccccc1NC(=O)Cn1c(=O)n(-c2ccc(C)cc2)c(=O)c2c1cnn2C,inactive: 7.48%
21,CCOc1ccc(NC(=O)c2oc3ccccc3c2NC(=O)c2cc3ccccc3o2)cc1,inactive: -3.94%

row,Compound,activation
1,Cc1ccc(CNC(=O)c2ccc(CS(=O)(=O)c3ccccc3C)o2)cc1,inactive: 40.5%
2,Cc1ccc(N2C(=O)CSC23C(=O)N(CC(=O)Nc2ccccc2F)c2ccccc23)cc1C (stereo unspecified),inactive: -9.81%
3,CN(C)c1ccc(CNC(=O)c2ccc3nc(CCc4ccccc4)oc3c2)cc1,inactive: -16%
4,CCOC(=O)CSc1nc2cc3c(cc2c(=O)n1CCCCCC(=O)NCc1ccc(OC)cc1)OCO3,inactive: -20.9%
5,COc1ccc(-n2nc(C(=O)Nc3cccc(Cl)c3)c3c4ccccc4n(C)c3c2=O)cc1Cl,inactive: 8.35%
6,CC(C)(C)c1ccc(-c2nnc(-c3ccccc3NC(=O)c3ccc(F)cc3F)o2)cc1,inactive: 1.41%
7,O=C(Nc1ccc(Br)cc1)c1cccc(S(=O)(=O)N2CCc3ccccc32)c1,inactive: 9.81%
8,CCCCCCC1CCC(C(=O)NC(C(=O)O)C(C)C)CC1 (stereo unspecified),inactive: 47.5%
9,O=C(CSc1oc(-c2ccco2)nc1S(=O)(=O)c1ccc(Cl)cc1)Nc1ccc(F)cc1,inactive: -18.4%
10,CC(C)c1ccc(NC(=O)CSC2=Nc3ccccc3C3=NC(CC(=O)NC4CCCCC4)C(=O)N23)cc1 (stereo unspecified),inactive: -18.7%
11,COc1ccc2c(Sc3ccc(Cl)cc3)c(C(=O)N3CCCCC3)[nH]c2c1,inactive: 6.92%
12,COc1ccc(-c2nc3ccccc3n3c(-c4ccccc4)c4c(=O)n(C)c(=O)n(C)c4c23)cc1,inactive: -10%
13,CN[C@H](CC(=O)O)C(=O)O,inactive: -2.27%
14,CCn1cc2nc(SCc3cccc(C(F)(F)F)c3)n(Cc3ccc(C)cc3)c(=O)c2n1,inactive: 8.23%
15,O=C(NCc1ccc(Cl)cc1Cl)c1cccc(N2CCCS2(=O)=O)c1,active: 61.7%
16,COc1ccc(-c2cc(C(=O)Nc3cnn(Cc4ccc(F)cc4)c3)no2)cc1OC,inactive: 29.4%
17,Cc1cc(F)ccc1NC(=O)c1c(C)oc2c1C1=NCCN1C=N2,inactive: -11.6%
18,CCc1ccccc1NC(=O)CSc1nc2c(c(=O)[nH]1)CN(Cc1ccccc1OC)CC2,inactive: -1.91%
